From the supplement of paper PMC4967469 come the findings set out here.

A lower IC50 marks a more sensitive line; where the fit passes the top or lowest dose, that dose stands as a limit. The AUC spans the tested range (256-fold, ending at the top dose) of the same fit: 1 means no effect, lower means more sensitive. An inferred top dose was derived from the fitted curves, not read from the paper.

Compound in the assay: COc1ncc(-c2ccc3nccc(-c4ccnnc4)c3c2)cc1NS(=O)(=O)c1ccc(F)cc1F [GSK2126458]
Briefly: Viability of human cancer cell lines after 72 h of drug (GDSC screen). To be noted: top dose inferred. Here is the method: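 Human cancer cell lines in 384-well plates, medium with 10% serum, drug for 72 h over a 256-fold dose range (nine 2-fold or five 4-fold steps up to the top dose). Adherent lines were fixed and stained with the nucleic acid dye Syto60, suspension lines read with resazurin; signal relative to control wells, capped at 0 and 100%. One two-parameter sigmoid per drug and line, fitted in a mixed model over all curves with the slope shared within a line.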

In the case of “GI-1 (glioma, adherent, top dose 0.128 µM)”, the AUC is 0.503 and the IC50 – broadly, the concentration that gives 50% inhibition – is 8.17 nM.

In the case of “GI-ME-N (neuroblastoma, adherent, top dose 0.128 µM)”, the AUC was 0.766 and the IC50 stood at 64.7 nM.

On to “GMS-10 (glioma, adherent, top dose 0.128 µM)”, for which the AUC worked out at 0.96 and the IC50 is > 128 nM.

For the cell line “GOTO (neuroblastoma, adherent, top dose 0.128 µM)”, the AUC was 0.909 and the IC50 was > 128 nM.

For “GP5d (large intestine, adherent, top dose 0.128 µM)”, the AUC was 0.799 and the half-maximal inhibitory concentration (IC50) came out at 54.1 nM.

For “GR-ST (lymphoblastic leukaemia, suspension, top dose 0.128 µM)”, the AUC is 0.421 and the IC50 is 4.65 nM.

In the case of “GRANTA-519 (B-cell lymphoma, suspension, top dose 0.128 µM)”, the AUC worked out at 0.638 and the IC50 is 18.4 nM.

In the case of “GT3TKB (stomach, adherent, top dose 0.128 µM)”, the AUC amounted to 0.981 and the IC50 is > 128 nM.

On to “H4 (glioma, adherent, top dose 0.128 µM)”, for which the AUC turned out to be 0.774 and the IC50 was 49.5 nM.

For “H9 (lymphoid neoplasm, suspension, top dose 0.128 µM)”, the AUC was determined as 0.992 and the IC50 is > 128 nM.

Turning to “H290 (mesothelioma, adherent, top dose 0.128 µM)”, the AUC stood at 0.964 and the half-inhibitory concentration (IC50) is > 128 nM.

On to “H513 (mesothelioma, semi-adherent, top dose 0.128 µM)”, for which the AUC stood at 0.912 and the IC50 is > 128 nM.

Take “H2369 (mesothelioma, adherent, top dose 0.128 µM)”: the AUC was 0.957 and the IC50 is > 128 nM.

With “H2373 (mesothelioma, adherent, top dose 0.128 µM)”, the AUC amounted to 0.866 and the IC50 is > 128 nM.

Regarding “H2461 (mesothelioma, adherent, top dose 0.128 µM)”, the AUC came to 0.952 and the IC50 was > 128 nM.

Regarding “H2591 (mesothelioma, adherent, top dose 0.128 µM)”, the AUC was found to be 0.897 and the IC50 is > 128 nM.

As to “H2595 (mesothelioma, adherent, top dose 0.128 µM)”, the AUC came to 0.904 and the IC50 was > 128 nM.

In the case of “H2722 (mesothelioma, adherent, top dose 0.128 µM)”, the AUC came out at 0.937 and the IC50 is > 128 nM.

On to “H2731 (mesothelioma, adherent, top dose 0.128 µM)”, for which the AUC came to 0.793 and the half-inhibitory concentration (IC50) was determined as 67.8 nM.

As to “H2795 (mesothelioma, adherent, top dose 0.128 µM)”, the AUC stood at 0.889 and the IC50 was > 128 nM.

For “H2803 (mesothelioma, adherent, top dose 0.128 µM)”, the AUC stood at 0.938 and the IC50 was > 128 nM.

For “H2804 (mesothelioma, adherent, top dose 0.128 µM)”, the AUC amounted to 0.813 and the IC50 is 77.5 nM.

Consider “H2818 (mesothelioma, adherent, top dose 0.128 µM)”, for which the AUC turned out to be 0.972 and the IC50 is > 128 nM.

As for “H2869 (mesothelioma, adherent, top dose 0.128 µM)”, the AUC was determined as 0.691 and the IC50 is 31.5 nM.

On to “H3118 (head and neck, adherent, top dose 0.128 µM)”, for which the AUC stood at 0.466 and the IC50 is 6.42 nM.

As to “H3255 (lung adenocarcinoma, adherent, top dose 0.128 µM)”, the AUC stood at 0.837 and the half-inhibitory concentration (IC50) amounted to 110 nM.

With “H-EMC-SS (chondrosarcoma, adherent, top dose 0.128 µM)”, the AUC was determined as 0.739 and the IC50 came to 48.1 nM.

With “HA7-RCC (kidney, adherent, top dose 0.128 µM)”, the AUC is 0.813 and the IC50 amounted to 78.1 nM.

Consider “HAL-01 (lymphoblastic leukaemia, suspension, top dose 0.128 µM)”, for which the AUC was determined as 0.107 and the IC50 came out at 0.526 nM.

Turning to “HARA (lung squamous cell carcinoma, adherent, top dose 0.128 µM)”, the AUC is 0.501 and the IC50 came to 8.03 nM.

Turning to “HC-1 (hairy cell leukaemia, suspension, top dose 0.128 µM)”, the AUC came out at 0.499 and the IC50 stood at 7.95 nM.

Take “HCC38 (breast, adherent, top dose 0.128 µM)”: the AUC was 0.786 and the IC50 is 60.1 nM.

“HCC70 (breast, adherent, top dose 0.128 µM)”: the AUC is 0.662 and the IC50 turned out to be 22.4 nM.

As to “HCC1143 (breast, adherent, top dose 0.128 µM)”, the AUC is 0.792 and the IC50 stood at 86.1 nM.

Consider “HCC1187 (breast, suspension, top dose 0.128 µM)”, for which the AUC amounted to 0.712 and the IC50 came out at 30.7 nM.

Turning to “HCC1395 (breast, adherent, top dose 1.024 µM)”, the AUC worked out at 0.915 and the IC50 is > 1020 nM.

Take “HCC1419 (breast, adherent, top dose 0.128 µM)”: the AUC is 0.671 and the IC50 came to 29.6 nM.

Regarding “HCC1428 (breast, adherent, top dose 0.128 µM)”, the AUC was 0.914 and the IC50 is > 128 nM.

As for “HCC1500 (breast, adherent, top dose 0.128 µM)”, the AUC is 0.76 and the IC50 turned out to be 46.7 nM.

Regarding “HCC1569 (breast, adherent, top dose 0.128 µM)”, the AUC came out at 0.502 and the IC50 is 8.12 nM.

On to “HCC1599 (breast, suspension, top dose 1.024 µM)”, for which the AUC was 0.318 and the IC50 worked out at 18.3 nM.

With “HCC1806 (breast, adherent, top dose 0.128 µM)”, the AUC turned out to be 0.846 and the IC50 was 82 nM.

For “HCC1937 (breast, adherent, top dose 0.128 µM)”, the AUC worked out at 0.786 and the IC50 was 64.5 nM.

Take “HCC1954 (breast, adherent, top dose 0.128 µM)”: the AUC is 0.448 and the IC50 stood at 5.65 nM.

With “HCC2157 (breast, suspension, top dose 0.128 µM)”, the AUC was 0.681 and the IC50 was determined as 26.3 nM.

With “HCC2218 (breast, suspension, top dose 1.024 µM)”, the AUC was 0.263 and the concentration for half-maximal inhibition (IC50) is 11.1 nM.

For the cell line “HCC2998 (large intestine, adherent, top dose 1.024 µM)”, the AUC stood at 0.72 and the IC50 amounted to 263 nM.

As to “HCC-15 (lung squamous cell carcinoma, adherent, top dose 0.128 µM)”, the AUC was 0.886 and the half-inhibitory concentration (IC50) is > 128 nM.

“HCC-33 (small cell lung carcinoma, adherent, top dose 0.128 µM)”: the AUC was 0.832 and the IC50 was 83.3 nM.

For “HCC-44 (lung adenocarcinoma, adherent, top dose 0.128 µM)”, the AUC is 0.725 and the IC50 was determined as 34.2 nM.

Consider “HCC-56 (large intestine, adherent, top dose 0.128 µM)”, for which the AUC worked out at 0.824 and the IC50 is 78.6 nM.

Take “HCC-78 (lung adenocarcinoma, adherent, top dose 0.128 µM)”: the AUC was 0.564 and the IC50 amounted to 12.3 nM.

For “HCC-827 (lung adenocarcinoma, adherent, top dose 0.128 µM)”, the AUC is 0.738 and the concentration for half-maximal inhibition (IC50) came to 43.2 nM.

On to “HCE-4 (oesophagus, adherent, top dose 0.128 µM)”, for which the AUC is 0.984 and the IC50 was > 128 nM.

On to “HCT-15 (large intestine, adherent, top dose 0.128 µM)”, for which the AUC worked out at 0.674 and the IC50 worked out at 25.2 nM.

For the cell line “HD-MY-Z (Hodgkin lymphoma, adherent, top dose 0.128 µM)”, the AUC was determined as 0.707 and the IC50 was determined as 30.9 nM.

As to “HDLM-2 (Hodgkin lymphoma, suspension, top dose 0.128 µM)”, the AUC was found to be 0.954 and the IC50 was > 128 nM.

“HDQ-P1 (breast, adherent, top dose 0.128 µM)”: the AUC is 0.825 and the IC50 is 97.2 nM.

For the cell line “HEC-1 (endometrium, adherent, top dose 0.128 µM)”, the AUC stood at 0.932 and the IC50 is > 128 nM.

For “HEL (acute myeloid leukaemia, semi-adherent, top dose 0.128 µM)”, the AUC was found to be 0.801 and the IC50 turned out to be 50.5 nM.

As for “HGC-27 (stomach, adherent, top dose 0.128 µM)”, the AUC was 0.398 and the IC50 stood at 4.39 nM.

With “HH (T-cell leukaemia, suspension, top dose 0.128 µM)”, the AUC turned out to be 0.384 and the IC50 is 3.46 nM.

For “HL-60 (acute myeloid leukaemia, suspension, top dose 0.128 µM)”, the AUC came out at 0.395 and the IC50 turned out to be 4.26 nM.

On to “HLE (liver, adherent, top dose 0.128 µM)”, for which the AUC worked out at 0.988 and the IC50 is > 128 nM.

In the case of “HMV-II (melanoma, adherent, top dose 0.128 µM)”, the AUC amounted to 0.802 and the IC50 turned out to be 80.3 nM.

In the case of “HN (head and neck, adherent, top dose 0.128 µM)”, the AUC was 0.944 and the IC50 is > 128 nM.
